The text below walks through data of ChEMBL document CHEMBL1156829.

Over roughly 5,400 compounds, “IFI” has its median near 2; the highest 2% begin near 22. The list shows a part of the results.

The test can be described thus: NOVARTIS: Inhibition Frequency Index (IFI) - the number of HTS assays where a compound showed > 50% inhibition/induction, expressed as a percentage of the number of assays in which the compound was tested. The format is functional.
`O=[N+]([O-])c1ccc2nc(Nc3ccc(Cl)c(Cl)c3)c(Nc3ccc(Cl)c(Cl)c3)nc2c1`: the IFI is 0%.

`O=C(C[n+]1cc(-c2ccccc2)n2c1CCC2)c1ccc(C2CCCCC2)cc1`: the IFI worked out at 12.5%.

As for `COCCN(CC(=O)Nc1cc(C(C)(C)C)nn1-c1ccc(C)cc1)C(=O)COCc1ccccc1`, the IFI is 1.87%.

As for `COc1ccc(NC(=O)c2c(Cl)nc(Cl)c([N+](=O)[O-])c2C)cc1`, the IFI came to 7.69%.

`CCC(Sc1nc(C)cc(-c2ccccc2)n1)C(=O)Nc1cccc2ccccc12` (stereo not drawn): the IFI came out at 0%.

As to `CCOc1ccccc1-n1c(C(C)N(CCc2ccccc2)C(=O)c2ccc(Br)cc2)nc2ccccc2c1=O` (stereo not drawn), the IFI was 5.71%.

Regarding `CCOC(=O)c1c(NC(=O)CSc2nnc(CNC(=O)c3ccc(C)c(C)c3)n2C2CCCCC2)sc2c1CCC2`, the IFI was 2.41%.

On to `Cn1c(=O)c2c(ncn2CC(O)CN2CCCC2)n(C)c1=O` (stereo not drawn), for which the IFI came to 4.27%.

For the compound `CC(C)CCn1c(NCc2ccccc2)nc2c1c(=O)n(CC(N)=O)c(=O)n2C`, the IFI is 0%.

Regarding `O=C(Nc1ccccc1)C1Cc2ccccc2CN1S(=O)(=O)c1ccc(F)cc1` (stereo not drawn), the IFI is 1.15%.

With `CCOC(=O)c1cnc2c(C)c3[nH]c(C)c(C)c3cc2c1O`, the IFI stood at 0%.

Turning to `COc1ccc(C2CC(=O)C3=C(C2)NC(C)=C(C(=O)OC2CCCC2)C3c2ccc(F)cc2)cc1OC` (stereo not drawn), the IFI stood at 8.43%.

As for `Cc1cc(C)cc(NC(=O)CCCn2c3ccccc3c(=O)c3cc(C)ccc32)c1`, the IFI stood at 0%.

For `COc1cccc(C=NNC(=O)CSc2ccccc2C)c1O`, the IFI was 0%.

`CCOC(=O)c1cn(CC)c2cc(N3CCCCC3)c(F)cc2c1=O` displayed an IFI of 6.56%.

On to `CCOC(=O)NN=C(C)c1ccc(C(C)=NNC(=O)OCC)cc1`, for which the IFI was 2.17%.

As for `COc1ccccc1NC(=O)CSc1nc2cccnc2n1-c1ccccc1OC`, the IFI came out at 7.69%.

In turn, `CC(C)Cc1ccc(-c2csc(NC(=O)C3C4CCC(C4)C3C(=O)O)n2)cc1` (stereo not drawn) came in with an IFI of 4.65%.

Turning to `COc1cncc(-c2cncc(N3CCN(CCN(C)C)CC3)n2)c1`, the IFI was found to be 0%.

`CCC(=O)NNc1cc(N2CCCC2)nc(N2CCCC2)n1` gave an IFI of 4.44%.

The compound `N=C(N)c1ccc(OCCCCCOc2ccc(C(=N)N)cc2)cc1` had an IFI of 2.61%.

The compound `Cc1cccc(-c2ccc(NC(=O)C3CCN(Cc4cnc(C)nc4)CC3)cc2)c1` came in with an IFI of 0%.

As to `CCOc1ccc(CCNC(=O)Nc2ccc(F)cc2)cc1OCC`, the IFI stood at 0%.

As to `CCCCN1Cc2ccc(C(=O)NCCN3CCOCC3)cc2N=C1c1ccc(OC)cc1`, the IFI came to 1.22%.

With `CC(=NNC(=S)NN)c1ccccn1`, the IFI worked out at 0%.

For the compound `CCN(CC)c1ccc(/C=C/C23NC(=O)CCN2c2ccc(C)cc2C3(C)C)cc1` (stereo not drawn), the IFI came out at 7.69%.

On to `O=C1[C@H]2Cc3c([nH]c4ccccc34)C(CCc3ccccc3)N2C(=O)CN1CCc1c[nH]c2ccccc12` (stereo partly drawn), for which the IFI came out at 12.2%.

Turning to `COCC(=O)NC(c1ccccc1)c1cc(Cl)c2cccnc2c1O` (stereo not drawn), the IFI was determined as 7.69%.

In turn, `O=c1cc(C(F)(F)F)c2cc(Cl)c(O)cc2o1` had an IFI of 3.6%.

With `COc1ccc(-c2noc(CNC(=O)c3cccc(I)c3)n2)cc1`, the IFI worked out at 0%.

For `Oc1c(C(Nc2ccccn2)c2ccc(Br)cc2)ccc2cccnc12` (stereo not drawn), the IFI turned out to be 11.3%.

For the compound `Cc1ccc(NC(=O)c2nc[nH]c2C(=O)Nc2nc3ccccc3[nH]2)c(C)c1`, the IFI was 4.69%.

`COC(=O)C1=C(C)N/C(=C\c2cc(C)n(-c3cc(C)ccc3C)c2C)C1=O` came in with an IFI of 0%.

`O=C(Nc1ccc2oc(-c3cccc4ccccc34)nc2c1)c1ccc([N+](=O)[O-])o1` had an IFI of 7.14%.

For the compound `CN1CCN(Cc2c(O)ccc3c(=O)c(Oc4ccc(C(C)(C)C)cc4)c(C(F)(F)F)oc23)CC1`, the IFI came to 2.35%.

As to `COC(=O)C1=C(C)N/C(=C\c2cc(C)n(-c3ccccc3C(F)(F)F)c2C)C1=O`, the IFI came to 0%.

On to `O=C(NCC1CCCO1)c1cc(S(=O)(=O)N2CCCCC2)c[nH]1` (stereo not drawn), for which the IFI is 2.38%.

For `CC[n+]1c(C=C2C=C(C)OC(C)=C2)sc2ccccc21`, the IFI was determined as 12.7%.

`O=C(Nc1ccc(C(c2ccccc2)(c2ccccc2)c2ccc(NC(=O)c3cccc([N+](=O)[O-])c3)cc2)cc1)c1cccc([N+](=O)[O-])c1` yielded an IFI of 0%.

`Cc1ccc(-c2nn3c(O)c4c(nc3c2C)CCCC4)cc1`: the IFI was determined as 10.9%.

`O=C(NNc1ccccc1F)C1CCC1` yielded an IFI of 3.45%.

`COC(=O)c1ccc2c(=O)n(Cc3ccc4c(c3)OCO4)c(SCC(=O)n3nc(C)cc3N)nc2c1` displayed an IFI of 0%.

The compound `COc1ccc(OC)c(-c2ccc(O)c(CN3CCCCCC3)c2)c1` registered an IFI of 1.92%.

`CCCNC(=O)c1ccc(OC2CCN(CC(c3ccccc3)c3ccccc3)CC2)c(OC)c1` returned an IFI of 2.78%.

`O=C(NCc1ccccc1)c1cnc(NCCC(c2ccccc2)c2ccccc2)nc1NCC1CCCCC1` came in with an IFI of 3.88%.

As to `Nc1ccc(-c2nc3cc(-c4ccc5[nH]c(-c6ccc(N)cc6)nc5c4)ccc3[nH]2)cc1`, the IFI came out at 27.3%.

Turning to `CCOC(=O)c1cc(-c2ccccc2)n(CCC(=O)Nc2ccccc2N2CCN(C)CC2)c1C`, the IFI is 2.94%.

For `CCC1CCCCN1C(=O)c1cc(-c2ccccc2OC)on1` (stereo not drawn), the IFI came out at 0%.

The compound `CCCn1c(=N)c(C(=O)NC(C)c2ccccc2)cc2c(=O)n3cccc(C)c3nc21` (stereo not drawn) returned an IFI of 0%.

`O=C(Nc1ccc(-n2cnnn2)cc1)C1CCN(Cc2ccc(OC(F)F)cc2)CC1` gave an IFI of 0%.

Turning to `CCc1ccccc1NC(=O)C1c2ccccc2C(=O)N(CC(C)C)C1c1cccs1` (stereo not drawn), the IFI amounted to 3.03%.

`COC(=O)C1CCN(C(=O)COC(c2ccccc2)c2cccnc2Cl)CC1` (stereo not drawn) had an IFI of 1.94%.

Consider `COc1ccccc1N1CCN(Cc2cc(C(C)C)c(C)cc2O)CC1`, for which the IFI was 3.12%.

In turn, `CCOc1ccc2nc(C)cc(Nc3ccc(Br)cc3)c2c1` returned an IFI of 5.56%.

`OC(CN1CCOCC1)Cn1c2ccc(Br)cc2c2cc(Br)ccc21` (stereo not drawn) gave an IFI of 0%.

As for `CN1/C(=C\C=C\C2=[N+](C)c3ccc4ccccc4c3C2(C)C)C(C)(C)c2ccccc21`, the IFI is 23.1%.

Compound `CC[n+]1c(C=CC=C2N(C)c3ccccc3C2(C)C)sc2ccccc21` showed an IFI of 28.6%.

In turn, `COc1ccc(N2CCN(C(CNC(=O)CC(C)C)c3ccco3)CC2)cc1` (stereo not drawn) showed an IFI of 0%.

As for `CCCCCSc1scc(-c2ccc(O)c(O)c2)[n+]1C`, the IFI was determined as 6.5%.

For the compound `COc1ccc(OC)c(-c2ccc(O)c(CNCCCN(C)C)c2)c1`, the IFI came to 2.56%.

For the compound `CC(C)CC(NC(=O)OC(C)(C)C)C(=O)NC(Cc1ccccc1)C(=O)OCc1ccccc1` (stereo not drawn), the IFI came to 0%.

Regarding `O=C(Nc1ccc(C2=NCCN2)cc1)Nc1cccc(C(=O)Nc2ccc(C3=NCCN3)cc2)c1`, the IFI was determined as 0.901%.

For the compound `CCOC(=O)c1sc(NC(=O)CSc2nnc(CNC(=O)COc3ccc(Cl)cc3)n2C)c(C(=O)OCC)c1C`, the IFI is 1.19%.

For `COc1cccc(OC)c1C(=O)Oc1cccc2ccc(C)nc12`, the IFI worked out at 1.39%.

Turning to `CCN(CC)CCCC(C)N(Cc1cccc(OCc2ccccc2)c1)C(=O)NCc1ccccc1` (stereo not drawn), the IFI turned out to be 2%.

`CCC(C)OC(=O)C1=C(C)NC2=C(C(=O)CC(c3ccc(Cl)cc3)C2)C1c1ccc(Cl)cc1` (stereo not drawn): the IFI amounted to 7.69%.

In turn, `Fc1ccc(-c2c[n+](Cc3ccc(Cl)cc3)c3n2CCC3)cc1` showed an IFI of 9.76%.

Turning to `CC1CN(C(=O)C(Cc2c[nH]c3ccccc23)NC(=O)C(c2ccccc2)c2ccccc2)CCN1C(=O)NCc1ccccc1` (stereo not drawn), the IFI came out at 0%.

Consider `O[C@@H](c1cc(C(F)(F)F)nc2c(C(F)(F)F)cccc12)[C@H]1CCCCN1`, for which the IFI came to 1.82%.

In turn, `O=c1c2[nH]c3ccccc3c2ncn1Cc1ccc2c(c1)OCO2` returned an IFI of 3.08%.

With `Cc1ccc(Sc2cc(C(=O)NCc3ccco3)c3ccccc3n2)cc1`, the IFI came to 1.19%.

For `O=[N+]([O-])c1ccc(-c2csc(CO)n2)cc1`, the IFI came to 0.82%.

As for `Cc1ccnc(Nc2nc(-c3ccc(Cl)cc3)cs2)c1`, the IFI was 6.45%.

`O=C(O)CC(c1ccc2c(c1)OCO2)N1CCS(=O)(=O)CC1` (stereo not drawn) returned an IFI of 0%.

Turning to `CC(C)(C)c1ccc(C(=O)Nc2ccc(NC(=O)c3ccc(-c4cccc([N+](=O)[O-])c4)o3)cc2)cc1`, the IFI came to 0%.

With `O=C(N/C(=C/C=C\c1ccccc1)C(=O)N1CCOCC1)c1ccc(Br)cc1`, the IFI was found to be 0%.

Compound `CCOC(=O)CSC1=Nc2ccccc2C2=NC(Cc3ccccc3)C(=O)N12` (stereo not drawn) came in with an IFI of 3.61%.

With `CCCCCCC(NC(=O)OCc1ccccc1)S(=O)(=O)c1ccc(C)cc1` (stereo not drawn), the IFI amounted to 2.6%.

With `O=C(NCc1n[nH]c(=S)n1-c1ccc(Br)cc1)c1cccc2ccccc12`, the IFI is 2.22%.

As to `Cc1ccc(-c2cc3nc4c(c(O)n3n2)CCCC4)cc1`, the IFI worked out at 7.14%.

Turning to `COc1cc(Br)c(/C=C2\Sc3ccccc3C2=O)cc1OC`, the IFI was found to be 0%.

Take `CCC(C)OC(=O)C1=C(C)NC2=C(C(=O)CC(c3ccc(Cl)cc3)C2)C1c1ccccc1F` (stereo not drawn): the IFI amounted to 2.41%.

`CCC(C)NC(=O)c1cc(NC(=O)c2cccc(Cl)c2)ccc1N1CCCCC1` (stereo not drawn) showed an IFI of 1.89%.

For `CCCCCn1c(SCc2ccc(C)cc2)nc2cc(C(=O)NCc3ccco3)ccc2c1=O`, the IFI came out at 2.38%.

Regarding `COc1ccc(C2C(C(=O)O)c3ccccc3C(=O)N2c2ccc(C)cc2)cc1OC` (stereo not drawn), the IFI came out at 0%.

`Cc1cc(C)c2c(c1)-c1c(ssc1=S)C(C)(C)N2C(=O)COc1nc2ccccc2s1` came in with an IFI of 0%.

In the case of `COc1ccc(-c2c[n+](Cc3ccc(Cl)c(Cl)c3)c3n2CCC3)cc1`, the IFI stood at 2.44%.

The compound `O=C(O)CSC(C(=O)Nc1ccc(Cl)cc1)c1ccccc1` (stereo not drawn) had an IFI of 0.8%.

In the case of `CCCC(=O)O[C@]1(C(=O)CCl)[C@@H](C)CC2C3CCC4=CC(=O)C=C[C@]4(C)[C@@]3(F)C(=O)C[C@@]21C` (stereo partly drawn), the IFI was found to be 3.88%.

Turning to `Cc1ccccc1OCc1nnc(SCC(=O)Nc2ccc([N+](=O)[O-])cc2)n1C`, the IFI was 5.94%.

As to `CCC(C(=O)NCc1ccc(OC)c(OC)c1)n1nc(C)c2c(C)n(-c3ccc(C)cc3)nc2c1=O` (stereo not drawn), the IFI was found to be 0%.

Regarding `COc1ccc(-n2cnc3cc(NCc4nc5ccccc5n4C)ccc32)cc1`, the IFI stood at 0%.

Regarding `COc1cc2c(-c3cc(Br)ccc3O)nc3c(c(Cc4ccccc4)nn3-c3ccccc3)c2cc1OC`, the IFI amounted to 0%.

Consider `CCN1/C(=C/C(=C/c2sc3ccccc3[n+]2CC)NC)Sc2ccccc21`, for which the IFI amounted to 7.14%.

As for `CCCCS(=O)(=O)N(C)CCCNc1ccnc2cc(Cl)ccc12`, the IFI is 3.7%.

Compound `COc1cccc2c(C)nc(N=C(N)N)nc12` displayed an IFI of 4.62%.

Compound `CCC(C)(C)c1ccc(OCC(O)CNCc2ccccc2)c(C(C)(C)CC)c1` (stereo not drawn) yielded an IFI of 4.54%.

The compound `COc1cccc(-c2ccc(O)c(CNC3CCCCCCC3)c2)n1` came in with an IFI of 3.03%.
